# Results from the supplement of paper PMC8728848.
# Some of the results follow.
# B1: SpnanA (Streptococcus pneumoniae), P62575 (protein)
# chain: MVIEKEDVETNASNGQRVDLSSELDKLKKLENATVHMEFKPDAKAPAFYNLFSVSSATKKDEYFTMAVYNNTATLEGRGSDGKQFYNNYNDAPLKVKPGQWNSVTFTVEKPTAELPKGRVRLYVNGVLSRTSLRSGNFIKDMPDVTHVQIGATKRANNTVWGSNLQIRNLTVYNRALTPEEVQKRS
# Assays:
# Test in all cases: glycan array binding signal (z-score within array); higher = stronger binding
# Conditions in all cases: glycan notation: IUPAC condensed, linker removed
# [1] = molecular target: GlcNAc(b1-2)[GlcNAc(b1-6)]Man(a1-6)[GlcNAc(b1-2)Man(a1-3)][GlcNAc(b1-4)]Man(b1-4)GlcNAc(b1-4)GlcNAc
# In short: (§1)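 The binding signal is a Z-score computed within each array and averaged over linkers. Arrays of the same protein sequence at different concentrations or buffers were also averaged together. Data originate from 3228 arrays in the Consortium for Functional Glycomics database, kept only where the protein sequence was available.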
# GlcNAc(b1-3)Gal = molecular target: GlcNAc(b1-3)Gal
# In short: as §1
# [2] = molecular target: GlcNAc(b1-3)Gal(b1-3)GalNAc
# In short: as §1
# GlcNAc(b1-3)Gal(b1-4)Glc = molecular target: GlcNAc(b1-3)Gal(b1-4)Glc
# In short: as §1
# [3] = molecular target: GlcNAc(b1-3)Gal(b1-4)GlcNAc
# In short: as §1
# [4] = molecular target: GlcNAc(b1-3)Gal(b1-4)GlcNAc(b1-3)Gal(b1-4)GlcNAc
# In short: as §1
# GlcNAc(b1-3)GalNAc = molecular target: GlcNAc(b1-3)GalNAc
# In short: as §1
# GlcNAc(b1-3)Man = molecular target: GlcNAc(b1-3)Man
# In short: as §1
# [5] = molecular target: GlcNAc(b1-3)[GlcNAc(b1-4)][GlcNAc(b1-6)]GlcNAc
# In short: as §1
# [6] = molecular target: GlcNAc(b1-3)[GlcNAc(b1-6)]Gal(b1-4)GlcNAc
# In short: as §1
# [7] = molecular target: GlcNAc(b1-3)[GlcNAc(b1-6)]GalNAc
# In short: as §1
# [8] = molecular target: GlcNAc(b1-4)Gal(b1-4)GlcNAc
# In short: as §1
# GlcNAc(b1-4)GlcNAc = molecular target: GlcNAc(b1-4)GlcNAc
# In short: as §1
# [9] = molecular target: GlcNAc(b1-4)GlcNAc(b1-4)GlcNAc
# In short: as §1
# [10] = molecular target: GlcNAc(b1-4)GlcNAc(b1-4)GlcNAc(b1-4)GlcNAc(b1-4)GlcNAc
# In short: as §1
# [11] = molecular target: GlcNAc(b1-4)GlcNAc(b1-4)GlcNAc(b1-4)GlcNAc(b1-4)GlcNAc(b1-4)GlcNAc
# In short: as §1
# [12] = molecular target: GlcNAc(b1-4)[GlcNAc(b1-6)]GalNAc
# In short: as §1
# [13] = molecular target: GlcNAc(b1-6)Gal(b1-4)GlcNAc
# In short: as §1
# GlcNAc(b1-6)GalNAc = molecular target: GlcNAc(b1-6)GalNAc
# In short: as §1
# GlcNAc3Prop(b1-4)GlcNAc = molecular target: GlcNAc3Prop(b1-4)GlcNAc
# In short: as §1
# [14] = molecular target: GlcNAc6S(b1-3)Gal(b1-4)GlcNAc
# In short: as §1
# Kdn(a2-3)Gal(b1-3)GalNAc = molecular target: Kdn(a2-3)Gal(b1-3)GalNAc
# In short: as §1
# Kdn(a2-3)Gal(b1-3)GlcNAc = molecular target: Kdn(a2-3)Gal(b1-3)GlcNAc
# In short: as §1
# Kdn(a2-3)Gal(b1-4)Glc = molecular target: Kdn(a2-3)Gal(b1-4)Glc
# In short: as §1
# Kdn(a2-3)Gal(b1-4)GlcNAc = molecular target: Kdn(a2-3)Gal(b1-4)GlcNAc
# In short: as §1
# [15] = molecular target: Kdn(a2-3)Gal(b1-4)[Fuc(a1-3)]GlcNAc
# In short: as §1
# Kdn(a2-6)Gal(b1-4)GlcNAc = molecular target: Kdn(a2-6)Gal(b1-4)GlcNAc
# In short: as §1
# [16] = molecular target: Man(a1-2)Man(a1-2)Man(a1-3)Man
# In short: as §1
# [17] = molecular target: Man(a1-2)Man(a1-2)Man(a1-6)[Man(a1-3)]Man
# In short: as §1
# Man(a1-2)Man(a1-3)Man = molecular target: Man(a1-2)Man(a1-3)Man
# In short: as §1
# [18] = molecular target: Man(a1-2)Man(a1-3)[Man(a1-2)Man(a1-6)]Man
# In short: as §1
# [19] = molecular target: Man(a1-2)Man(a1-3)[Man(a1-2)Man(a1-6)]Man(a1-6)[Man(a1-2)Man(a1-2)Man(a1-3)]Man
# In short: as §1
# [20] = molecular target: Man(a1-2)Man(a1-3)[Man(a1-2)Man(a1-6)]Man(a1-6)[Man(a1-2)Man(a1-2)Man(a1-3)]Man(b1-4)GlcNAc(b1-4)GlcNAc
# In short: as §1
# [21] = molecular target: Man(a1-2)Man(a1-3)[Man(a1-6)]Man(a1-6)[Man(a1-2)Man(a1-3)]Man(b1-4)GlcNAc(b1-4)GlcNAc
# In short: as §1
# [22] = molecular target: Man(a1-2)Man(a1-6)[Man(a1-3)]Man(a1-6)[Man(a1-2)Man(a1-2)Man(a1-3)]Man
# In short: as §1
# [23] = molecular target: Man(a1-2)Man(a1-6)[Man(a1-3)]Man(a1-6)[Man(a1-2)Man(a1-2)Man(a1-3)]Man(b1-4)GlcNAc(b1-4)GlcNAc
# In short: as §1
# Man(a1-3)[Man(a1-6)]Man = molecular target: Man(a1-3)[Man(a1-6)]Man
# In short: as §1
binder,measurement,setting,value
B1,glycan array binding signal (z-score),[1],-0.328
same,glycan array binding signal (z-score),GlcNAc(b1-3)Gal,-0.304
same,glycan array binding signal (z-score),[2],-0.164
same,glycan array binding signal (z-score),GlcNAc(b1-3)Gal(b1-4)Glc,-0.294
same,glycan array binding signal (z-score),[3],-0.22
same,glycan array binding signal (z-score),[4],-0.24
same,glycan array binding signal (z-score),GlcNAc(b1-3)GalNAc,-0.199
same,glycan array binding signal (z-score),GlcNAc(b1-3)Man,-0.158
same,glycan array binding signal (z-score),[5],-0.274
same,glycan array binding signal (z-score),[6],-0.211
same,glycan array binding signal (z-score),[7],-0.222
same,glycan array binding signal (z-score),[8],-0.275
same,glycan array binding signal (z-score),GlcNAc(b1-4)GlcNAc,-0.179
same,glycan array binding signal (z-score),[9],-0.223
same,glycan array binding signal (z-score),[10],-0.265
same,glycan array binding signal (z-score),[11],-0.247
same,glycan array binding signal (z-score),[12],-0.279
same,glycan array binding signal (z-score),[13],-0.263
same,glycan array binding signal (z-score),GlcNAc(b1-6)GalNAc,-0.295
same,glycan array binding signal (z-score),GlcNAc3Prop(b1-4)GlcNAc,-0.256
same,glycan array binding signal (z-score),[14],0.11
same,glycan array binding signal (z-score),Kdn(a2-3)Gal(b1-3)GalNAc,-0.266
same,glycan array binding signal (z-score),Kdn(a2-3)Gal(b1-3)GlcNAc,-0.261
same,glycan array binding signal (z-score),Kdn(a2-3)Gal(b1-4)Glc,-0.204
same,glycan array binding signal (z-score),Kdn(a2-3)Gal(b1-4)GlcNAc,-0.287
same,glycan array binding signal (z-score),[15],-0.23
same,glycan array binding signal (z-score),Kdn(a2-6)Gal(b1-4)GlcNAc,-0.273
same,glycan array binding signal (z-score),[16],-0.256
same,glycan array binding signal (z-score),[17],-0.182
same,glycan array binding signal (z-score),Man(a1-2)Man(a1-3)Man,-0.228
same,glycan array binding signal (z-score),[18],-0.273
same,glycan array binding signal (z-score),[19],-0.313
same,glycan array binding signal (z-score),[20],-0.239
same,glycan array binding signal (z-score),[21],-0.256
same,glycan array binding signal (z-score),[22],-0.27
same,glycan array binding signal (z-score),[23],-0.257
same,glycan array binding signal (z-score),Man(a1-3)[Man(a1-6)]Man,-0.248
